± gives the standard deviation. The full ranking holds about 6,600 sequences; the median of “pre-steady-state target cleavage rate” is about 0.07, and the highest 2% start at about 0.72. The entries are a selection whose mix differs from that of the whole data set.

For this assay, the system named is MIWI (PIWIL1) piRISC loaded with Kctd7 piRNA (30 nt). The assay is described as follows: pre-steady-state target cleavage rate (min^-1); MIWI and MILI are mouse PIWI proteins and EfPiwi is from a freshwater sponge; tags in brackets are library labels; higher = faster piRNA-guided slicing of the target. As to conditions: guide: Kctd7 piRNA 5'p-UGUUAAUCUCUCAGAGAAGGUGACAGUGAU; auxiliary factor: 500 nM mouse GTSF1. How it is done:
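Cleave-'n-Seq: a library of target RNAs (target site embedded in constant flanks, ACAGCATTCCGCGTTAGTGATATCCG... 5' flank; DNA-blocked outside the site) at 0.1 nM was incubated with 1 nM active mouse MILI or MIWI piRISC (synthetic 5'-monophosphorylated piRNA guide) with or without 500 nM mouse GTSF1 at 33 °C for 1 min to 16 h. Uncleaved targets were sequenced and normalised to non-target controls, and the pooled three trials were fitted to a burst-and-steady-state model to give the pre-steady-state cleavage rate (min^-1; k3 is constrained to at most 1e-4). Sequence is the target site only; target names encode pairing extent (gX:gY) and contiguous / 1-mismatch / 2-mismatch / bulge geometry. Fits with R² ≤ 0 are excluded.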
On to UAGUGUCUCACCUUCUCUGAGAGAUUAAGA, for which the “pre-steady-state target cleavage rate” value is 0.091 ± 0.02.
For UACACUGUCACGAUCUCUGAGAGAUUAUGA, the “pre-steady-state target cleavage rate” value was 0.0201 ± 0.008.
With AUCACUGUCACCAUCUCAGAGAGAUUAACA, the “pre-steady-state target cleavage rate” value turned out to be 0.15 ± 0.02.
Turning to UAGUGACUCACCUUAUCUGAGAGAUUAACA, the “pre-steady-state target cleavage rate” value was determined as 0.308 ± 0.034.
In the case of UAGUGACAGUGCUUCUCUGAAAGAUUAACA, the “pre-steady-state target cleavage rate” value was 0.00956 ± 0.0019.
On to UACUCUGUCACCUUCUCUGAGAGAUUAUGA, for which the “pre-steady-state target cleavage rate” value came to 0.122 ± 0.025.
For the sequence UAGUCUGUCACCUUGUCUGAGAGAUUAACA, the “pre-steady-state target cleavage rate” value was found to be 0.265 ± 0.025.
As to UAGUGUGUCACCUUGUCUGAGAGAUAAACA, the “pre-steady-state target cleavage rate” value was 0.063 ± 0.012.
Take UAGAGUGUCACCUUCUCUCAGAGAUUAACA: the “pre-steady-state target cleavage rate” value is 0.137 ± 0.014.
For UAGUCUGUCACCUUCUCUGAGAGUUAAACA the value was 0.4 ± 0.074; for UAGUGAGUCACCUCUCUCUGAGAGAUUAACA, 0.377 ± 0.034; for UAGACUGUCACCUUCUCUGUGUGAUUAACA, 0.00878 ± 0.0027.
UUCACUGUCACCUUCUCUGAGACAUUAACA: the “pre-steady-state target cleavage rate” value came to 0.141 ± 0.012.
For UAGUGAGUCACCUUCUCGAGAGAUUAACA, the “pre-steady-state target cleavage rate” value is 0.074 ± 0.0093.
On to UAGUCUCACACCUUCUCUGAGAGAUUAACA, for which the “pre-steady-state target cleavage rate” value stood at 0.464 ± 0.022.
Regarding UAGACUCUCACCUACUCUGAGAGAUUAACA, the “pre-steady-state target cleavage rate” value was found to be 0.277 ± 0.022.
For the sequence UAGUGUGUCACCUUCACUGAGAGAUUAUCA, the “pre-steady-state target cleavage rate” value stood at 0.131 ± 0.026.
As for UUCACUGUCACCUUCUCUGAGUCUUUAACA, the “pre-steady-state target cleavage rate” value was found to be 0.0111 ± 0.0038.
For UUGACUGUCACCUUCUCUGUGAGAUUAACA, the “pre-steady-state target cleavage rate” value came to 0.267 ± 0.011.
Turning to AUCACUGUCAGCUUCUCUGAGUGAUUAACA, the “pre-steady-state target cleavage rate” value was found to be 0.0205 ± 0.004.
Regarding UUCACUGUCACCUUCUCUGAGAGUUAACA, the “pre-steady-state target cleavage rate” value was 0.368 ± 0.094.
Take UAGUGAGUGUGCUUCUCUGAGAGAUUAACA: the “pre-steady-state target cleavage rate” value is 0.0679 ± 0.0088.
With UAGACUCACACCUUCUCUGAGAGAUUAAGA, the “pre-steady-state target cleavage rate” value was 0.152 ± 0.023.
For UAGUGACACACCUUCUGUGAGAGAUAUUGA, the “pre-steady-state target cleavage rate” value is 0.0056 ± 0.0042.
As for UAGUGUGUCACCAUCUCUGAGAGAUUAUGA, the “pre-steady-state target cleavage rate” value stood at 0.02 ± 0.007.
Consider UAGUGACACACCUUCUCUCAGAGAUUAUCA, for which the “pre-steady-state target cleavage rate” value came to 0.051 ± 0.016.
Consider UUCACUGUCACGUUCUCUCAGAGAUUAACA, for which the “pre-steady-state target cleavage rate” value worked out at 0.0729 ± 0.0078.
For the sequence UUCCCUGUCACCUUCUCUGAGAGAUUAACA, the “pre-steady-state target cleavage rate” value was found to be 0.502 ± 0.037.
Take UAGUGACACACCUUCUCUAGAGAUUAACA: the “pre-steady-state target cleavage rate” value stood at 0.0218 ± 0.0072.
UAGUGAGUGACCUUCUCUGAGAGAUAAACA: the “pre-steady-state target cleavage rate” value stood at 0.294 ± 0.04.
Turning to UAGUGACUCACCUUCACAGAGAGAUUAACA, the “pre-steady-state target cleavage rate” value was found to be 0.00937 ± 0.0028.
Take UAGACUGUCACCUUCUCUGAGACGAUUAACA: the “pre-steady-state target cleavage rate” value came out at 0.0162 ± 0.0031.
For UAGACAGUCACCUUCUCUGAGAGAUUUACA the value was 0.36 ± 0.046; for UAGUGACACACCUUUCUGAGAGAUUAACA, 0.0293 ± 0.0078; for UUCACUGUCACCUUCCUCUGAGAGAUUAACA, 0.538 ± 0.029.
For the sequence AUCACUGUGACCUUCUCUCAGAGAUUAACA, the “pre-steady-state target cleavage rate” value turned out to be 0.11 ± 0.01.
As for UACACUGUCUGCUUCUCUGAGAGAUUAAGA, the figure is 0.0888 ± 0.015; as for AACACUGUCACCUUCUCUGAGAGAUUUUGA, 0.0856 ± 0.021; as for UAGAGAGUCACCUUCUCUGAGAGAUUAAGA, 0.244 ± 0.047.
UAGUGUGUCACCUUCUCUGUGAGUUUAACA: the “pre-steady-state target cleavage rate” value was found to be 0.108 ± 0.015.
UUCACUGACACCUACUCUGAGAGAUUAACA: the “pre-steady-state target cleavage rate” value is 0.459 ± 0.043.
Consider UAGUGAGUCACCUUCACUGACAGAUUAACA, for which the “pre-steady-state target cleavage rate” value was determined as 0.188 ± 0.02.
Regarding UAGUGACUCACGCUUCUCUGAGAGAUUAACA, the “pre-steady-state target cleavage rate” value was found to be 0.178 ± 0.02.
Turning to UAGUGACUCACCUUCUGUGAGAGAAUAACA, the “pre-steady-state target cleavage rate” value stood at 0.0473 ± 0.0072.
Consider UAGUGAGUCACGAUCUCUGAGAGAUUAACA, for which the “pre-steady-state target cleavage rate” value stood at 0.457 ± 0.037.
Consider UAGUCUGUCACCUUCUCUGAGAGAUUUUGA, for which the “pre-steady-state target cleavage rate” value turned out to be 0.0211 ± 0.0064.
